Test results published in PubChem BioAssay AID1030 (National Center for Advancing Translational Sciences (NCATS), 2008).
Hit rate of the full screen: of about 220,000 compounds, about 16,000 (7.3%) were called active. The shares of active, inactive and inconclusive entries below differ from those in the screen. The call rests on the fitted dose curve; in most records, active means well fitted inhibition curve with a large enough effect (not every such curve was filed as active); inconclusive means small, poorly fitted or top-dose-only effect, or another doubt; inactive means no such curve, though single readings can be large or run the other way. Potencies beside an inconclusive call are fits to weak or partial responses and may not hold up.

molecular target: Aldehyde dehydrogenase 1A1 (Homo sapiens) (UniProt P00352); assay: qHTS Assay for Inhibitors of Aldehyde Dehydrogenase 1 (ALDH1A1); details: Purified ALDH1A1, NADH fluorescence, propionaldehyde substrate; series mostly up to 75.3 µM
Potency means the concentration at half of the fitted maximal effect; tags describe the fitted curve by direction and shape.

Sequence of UniProt P00352 (P00352 whole entry, looked up): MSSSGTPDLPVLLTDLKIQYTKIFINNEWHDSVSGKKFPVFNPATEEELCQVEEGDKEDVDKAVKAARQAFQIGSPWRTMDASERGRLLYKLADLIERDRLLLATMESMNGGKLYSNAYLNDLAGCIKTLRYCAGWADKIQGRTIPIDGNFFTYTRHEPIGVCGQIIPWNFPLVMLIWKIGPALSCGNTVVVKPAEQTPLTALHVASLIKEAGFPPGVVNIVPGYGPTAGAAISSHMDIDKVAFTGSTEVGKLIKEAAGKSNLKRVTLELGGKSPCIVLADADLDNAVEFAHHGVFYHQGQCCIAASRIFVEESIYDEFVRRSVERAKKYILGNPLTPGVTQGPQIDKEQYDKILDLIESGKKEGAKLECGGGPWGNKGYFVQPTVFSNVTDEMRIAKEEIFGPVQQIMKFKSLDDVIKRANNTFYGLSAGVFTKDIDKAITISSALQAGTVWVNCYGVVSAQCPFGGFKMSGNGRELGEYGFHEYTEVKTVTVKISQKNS

Potency, inconclusive:
CN1CCN(c2ncc3ncc(=O)n(CCC#N)c3n2)CC1 28.2 µM [inhibitor, partial curve], COc1c(Cl)cc(-c2noc(C)c2C(=O)NCc2ccccc2)cc1Cl 4.47 µM [inhibitor, partial curve], Cc1ccc(Cl)cc1N1CCN(C(=O)C2CCN(S(=O)(=O)c3cnc[nH]3)CC2)CC1 39.8 µM [inhibitor, single point], CCN(CCn1cccn1)Cc1cn[nH]c1-c1ccc(OC)cc1F 28.2 µM [inhibitor, single point], Cc1cc(C)nc(NN=C(c2ccccc2)c2ccccc2)n1 44.7 µM [inhibitor, single point], CC(=O)NC(CC(=O)Nc1ccc(S(=O)(=O)N2CCCCC2)cc1)c1ccccc1 (stereo not drawn) 39.8 µM [inhibitor, single point], CCN1C(=O)C(CC(=O)Nc2ccc(OC)cc2)N(Cc2cccnc2)C1=S (stereo not drawn) 22.4 µM [inhibitor, single point], CC(C)(C)n1nnnc1CN(Cc1cccnc1)Cc1ccccc1Cl 25.1 µM [inhibitor, partial curve], CC1=CC2=NCC(O)CN2C=C1 (stereo not drawn) 35.5 µM [inhibitor, single point], Cc1ccc(S(=O)(=O)c2cc3c(=O)n4cccc(C)c4nc3n(CC3CCCO3)c2=N)cc1 (stereo not drawn) 3.16 µM [inhibitor, full curve], Cc1ccc(C)c(-n2c(-c3cccnc3)n[nH]c2=S)c1 35.5 µM [inhibitor, single point], CCc1ccc(N(C(=O)c2csnn2)C(C(=O)NC(C)(C)CC)c2ccccn2)cc1 (stereo not drawn) 11.2 µM [inhibitor, partial curve], Cc1cc(N2CCN(c3ccccc3)CC2)nc(-c2ccccc2O)n1 35.5 µM [inhibitor, single point], O=C(Nc1ccc2c(c1)OCO2)C1CCCCN1S(=O)(=O)c1ccccc1 (stereo not drawn) 14.1 µM [inhibitor, partial curve], Cc1nc(NC(=O)c2ccc(-c3cc4ccccc4oc3=O)cc2)ccc1Br 2.24 µM [inhibitor, partial curve], CCc1noc(C)c1C(=O)Nc1ncc(C)s1 35.5 µM [inhibitor, single point], Cc1ccc(C(=O)Nc2nnc(-c3ccc(C(C)(C)C)cc3)s2)cc1 20 µM [inhibitor, partial curve], CC(C)N=c1scc(-c2cccs2)n1/N=C/c1ccc(O)c(O)c1O 28.2 µM [inhibitor, single point], COc1ccc(/C=N/NC(=O)c2csc(-n3nc(C)cc3C(F)(F)F)n2)cc1 39.8 µM [inhibitor, single point], O=c1oc2ccccc2c2c1SC(C(F)(F)F)C2 (stereo not drawn) 28.2 µM [inhibitor, partial curve], FC(F)(F)c1cc(-c2ccc(Cl)cc2)nc2ncnn12 35.5 µM [inhibitor, single point], CS(=O)(=O)N(CC(=O)NCc1ccco1)c1cccc([N+](=O)[O-])c1 39.8 µM [inhibitor, single point], CCOc1ccc(OCc2ccc(C(=O)N(CC)CC)cc2)cc1 39.8 µM [inhibitor, single point], O=C1C2C3C=CC(c4ccccc4)(C2C(=O)N1c1cccc(Cl)c1)C1C(=O)N(c2cccc(Cl)c2)C(=O)C31 (stereo not drawn) 31.6 µM [inhibitor, single point], CCOC(=O)c1cc(-c2ccccc2)sc1NC(=O)CSc1nncs1 39.8 µM [inhibitor, single point], COc1ccc(O)c(C(=O)c2cnc3nc4ccccc4n3c2)c1 15.8 µM [inhibitor, partial curve], O=C(CSc1nc2ccccc2n1CCc1ccccc1)NC1CCS(=O)(=O)C1 (stereo not drawn) 39.8 µM [inhibitor, single point], CCOc1ccc2[nH]c(=O)c(CN(Cc3ccccc3OC)C(=O)c3ccccc3)cc2c1 39.8 µM [inhibitor, single point], CCCn1nc2cc(C(=O)NCc3ccc(OC)cc3)ccc2c1OCC 25.1 µM [inhibitor, partial curve], CCOC(=O)C1CCN(C(=O)Nc2ccc3nc(C)c(C)nc3c2)CC1 22.4 µM [inhibitor, partial curve], O=C(c1cc(F)ccc1F)C1CCCN(C(=O)c2ccco2)C1 (stereo not drawn) 39.8 µM [inhibitor, single point], CN1CCN(CC(=O)Nc2nc(-c3c[nH]c4ccccc34)cs2)CC1 39.8 µM [inhibitor, single point], Cc1cc(C)cc(OCC(=O)OCC(=O)Nc2ccc(Cl)cn2)c1 2.51 µM [inhibitor, full curve, poor fit], COc1ccc(C(C)=O)cc1COC(=O)Cc1n[nH]c(=O)c2ccccc12 39.8 µM [inhibitor, single point], CCN(CC)c1ccc(C(=O)NN)cc1 3.16 µM [inhibitor, partial curve], COc1cccc(CN2C(=O)c3cccc(N)c3C2=O)c1 35.5 µM [inhibitor, partial curve], Cc1ccc(NC(=O)c2ccn(C(=O)Nc3ccccc3)n2)c(C)c1 3.16 µM [inhibitor, partial curve, poor fit], CC(C)(C)NC(=O)CSc1nnc(-c2ccncc2)n1Cc1ccccc1 23.8 µM [inhibitor, single point], CCOC(=O)N1CCN(C(=O)c2ccccc2NC(=O)c2ccc(OC)cc2)CC1 25.1 µM [inhibitor, partial curve], CCOC(=O)Cc1csc(NS(=O)(=O)c2ccc3c4c(cccc24)C(=O)N3CC)n1 14.1 µM [inhibitor, partial curve], CN1CCC(N2CCN(c3cccc(C(F)(F)F)c3)CC2)CC1 39.8 µM [inhibitor, single point], Cc1ccc(Sc2ccc(C(=O)N(C)C)cc2[N+](=O)[O-])cc1 39.8 µM [inhibitor, single point], CCOC(=O)C1CCCN(C(=O)/C=C/c2cc(OC)c(OC)c(OC)c2)C1 (stereo not drawn) 39.8 µM [inhibitor, single point], COc1ccc2c(c1)c1ncn(Cc3ccco3)c(=O)c1n2C 31.6 µM [inhibitor, partial curve], O=C(NC(=S)Nc1ccccc1N1CCOCC1)c1ccc([N+](=O)[O-])cc1 39.8 µM [inhibitor, single point], O=C(O)CCCNC(=O)c1cncc(O)c1 39.8 µM [inhibitor, single point]

Potency, active:
CC(=O)Nc1ccc(N2CCCCC2)c(C(=O)Nc2cccc(C)c2)c1 11.2 µM, COC(=O)C1=C(C)N(CCc2ccccc2)C(=O)C1(NS(=O)(=O)c1ccc(NC(C)=O)cc1)C(F)(F)F (stereo not drawn) 20 µM, O=C(CSc1nnc2ccccn12)c1ccccc1 10 µM, Cc1nn(C)c(Oc2ccccc2)c1CCNC(=O)CCl 22.4 µM, c1ccc(C(c2ccccc2)N2CCN(c3nc4ccccc4n4cnnc34)CC2)cc1 14.1 µM, Nc1cccn2c(-c3ccc(Cl)c(Cl)c3)cnc12 25.1 µM

Potency, inactive:
C/C(=N\NC(=O)CCCNc1ccc(C)cc1)c1ccccn1, Nn1c(Cc2cccc3ccccc23)nnc1SCn1nnc2ccccc2c1=O, O=c1c(O)c(-c2ccccc2)oc2ccccc12, O=C(C(Cc1ccccc1)n1cccc1)N1CCCCC1 (stereo not drawn), CCOc1ccc(C2C(C(=O)c3ccco3)=C(O)C(=O)N2CCN(C)C)cc1 (stereo not drawn), CC(=O)Nc1ccc2c(c1)C(C)(C)C(C)N2C (stereo not drawn), Cc1ccc(Nc2ncnc3ccccc23)cc1, O=C(c1ccccc1[N+](=O)[O-])N1CCc2ccccc2C1, CCC(=O)Nc1cccc(NC(=S)NC(=O)c2ccc(Cl)cc2Cl)c1, CCCn1c(C)nc2c(NC3CCN(Cc4ccccc4)CC3)nc(C)nc21, O=C(c1cnccn1)N1CCC2(CC1)CN(Cc1ccccc1)C2, CCOC(=O)c1[nH]cnc1C(=O)Nc1ccncc1, Cc1nc2nc3c(cn2n1)C(=O)CCC3, Cc1ccc(C(c2nnnn2C(C)(C)C)N2CCC(C)CC2)cc1 (stereo not drawn), O=C(CSC1=NC(=O)C(c2ccccc2)C(=O)N1)Nc1cccc(Cl)c1 (stereo not drawn), Cc1[nH]nc2c1C(Cc1ccccc1)C(C#N)=C(N)O2 (stereo not drawn), COc1cccc(OCC(O)CN2CCN(CCO)CC2)c1 (stereo not drawn), CC(C)(C)OC(=O)N1CCC(C(=O)N[C@@H](Cc2ccccc2)C(=O)O)(c2ccccc2)CC1, O=C(O)CC(c1ccc(Cl)cc1)n1cccc1 (stereo not drawn), Cc1cc(C)c(NC2=NS(=O)(=O)c3ccccc32)c(C)c1, CCN(CC)S(=O)(=O)c1cccc(C(=O)c2c(C)cc3ccccn23)c1
